Source: PubChem BioAssay AID1508624 (National Center for Advancing Translational Sciences (NCATS), 2021)
Among all 48,000 compounds or so, about 120 (0.25%) were called active. About 4% were inconclusive and are not listed. Calls come from the whole dose curve; as a rule, active = well fitted activation curve with a large enough effect; inconclusive = small, poorly fitted or top-dose-only effect, or another doubt; inactive = no such curve, though single readings can be large or run the other way. Some of the results follow.

Test: Primary qHTS for Identification of Small Molecule Activators of Huntingtin-Antisense Promoter Activity; note: nearly all actives have a fitted effect of over 55% in size
Settings: HEK293 HTT-AS promoter firefly luciferase reporter (activity 0% = vehicle and -100% = no light), 24 h; series mostly up to 57.5 µM; activity change, positive = activation: at the top concentration
Procedure, shortened: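 HEK293 Fluc reporter, 2,500 cells/well, 24 h pre-culture; cpds up to 57.5 uM final, 24 h 37 degrees C; Dual-Glo, 10 min RT; normalized vehicle = 0%, zero RLU = -100%.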

| Compound | activity change, positive = activation |
| --- | --- |
| Cn1cnc([N+](=O)[O-])c1Sc1ncnc2nc[nH]c12 | inactive |
| Clc1cccc(-n2cc(-c3ccccc3)c3c(NC4CCCC4)ncnc32)c1 | inactive: -12.2% |
| COc1ccccc1NC(=O)CSc1nc2c(oc3ccccc32)c(=O)n1Cc1ccco1 | inactive: -16.5% |
| Cc1ccc(-c2nnc3c4ccccc4c(C)nn23)cc1NC(=O)c1cccc(Br)c1 | inactive: -0.688% |
| O=C(NCc1cccc(Cl)c1)NCc1noc2ccccc12 | inactive: 4.63% |
| CCCCN(CC)C(=O)CCCn1c(=O)c2cccn2c2ccccc21 | inactive: -12.1% |
| COc1cccc(N2CCN(c3ncnc4c3c(-c3ccccc3)cn4-c3ccc(F)cc3)CC2)c1 | inactive: -4.85% |
| CCOC(=O)c1cnc(N2CCN(c3ccc(OC)cc3)CC2)c2ccccc12 | inactive: -11.3% |
| CCN1CCN(c2ncnc3c2cnn3-c2cc(Cl)ccc2C)CC1 | inactive: -10.8% |
| CCOC(=O)c1c(S(=O)(=O)NCC(=O)N(C)Cc2ccccc2)c(C)n(C)c1C | inactive: -16% |
| COc1ccccc1N1CCN(c2ncnc3c2c(-c2ccccc2)cn3-c2cccc(C)c2)CC1 | inactive: -16.2% |
| CC1CCN(S(=O)(=O)c2csc(C(N)=O)c2)CC1 | inactive: -18.7% |
| CCCOc1ccc(C2c3c(oc4ccc(F)cc4c3=O)C(=O)N2CCc2ccc(OC)cc2)cc1 (stereo unspecified) | inactive: -5.89% |
| O=C(CSc1oc(-c2ccc(F)cc2)nc1S(=O)(=O)c1ccc(Br)cc1)NC1CCCCC1 | inactive: -0.448% |
| CC(=O)Nc1nonc1-c1nnc(SCC(=O)Nc2ccc(C)c(Cl)c2)n1C | inactive: -13.8% |
| COc1ccc(-c2cc(=O)c3c(O)cc(O[C@@H]4O[C@H](CO[C@@H]5O[C@@H](C)[C@H](O)[C@@H](O)[C@@H]5O)[C@@H](O)[C@H](O)[C@@H]4O)cc3o2)cc1O | inactive: -50.9% |
| CCOc1ccc2c(c1)c(=O)c(S(=O)(=O)c1ccc(C)cc1)cn2Cc1ccccc1Cl | inactive: -14.2% |
| O=C(Cn1nc(-c2ccc(Cl)cc2)ccc1=O)NCCc1ccccc1 | inactive: -23.3% |
| CCOC(=O)CCc1c(C)nc2c(c(C)nn2-c2ccc(C)cc2)c1C | inactive: -3.68% |
| O=C(C1CCC1)N1CCc2cc(S(=O)(=O)NCCc3ccccc3)ccc21 | inactive: -28.1% |
| Cc1ccc(Cn2c(CCNC(=O)C(C)C)nc3ccccc32)cc1 | inactive: -13.9% |
| COc1ccc(CNC(=O)CCNS(=O)(=O)c2ccc3c(c2)CCCC(=O)N3)cc1 | inactive: -20% |
| Cc1ccc(Cl)cc1N(C)C(=O)C1CCCN(c2ncnc3onc(-c4ccc(F)cc4)c23)C1 (stereo unspecified) | inactive: -34% |
| CCOc1ccccc1NC(=O)c1c(NC(=O)Cc2ccc(OC)cc2)sc2c1CCC2 | inactive: 12.9% |
| CCc1cccc(NC(=O)c2ccc3c(c2)c(C)c(C)n3Cc2ccc(F)cc2)c1 | inactive: -25.7% |
| Cc1ccc(OCC(=O)Nc2cccc(C(=O)OCc3cc(=O)n4c(C)csc4n3)c2)cc1 | inactive: -29.6% |
